Results are given in words; binding and its absence hold for the method and conditions named. Some results given as binding are weak or reduced against the parent protein; the word gives no strength.

Protein sequences, listed by entry. Tags and fused reporters are not part of them. Residues count along the entry.
FtsZ^316-383 (bacterial two-hybrid fusion) (P0A9A6, residues 316-383): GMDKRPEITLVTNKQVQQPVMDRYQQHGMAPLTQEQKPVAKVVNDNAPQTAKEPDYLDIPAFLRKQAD
SUMO-FtsZ^316-370 (P0A9A6, residues 316-370): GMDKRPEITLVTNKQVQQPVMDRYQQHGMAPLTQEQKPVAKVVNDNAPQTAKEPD
UniProt P75862: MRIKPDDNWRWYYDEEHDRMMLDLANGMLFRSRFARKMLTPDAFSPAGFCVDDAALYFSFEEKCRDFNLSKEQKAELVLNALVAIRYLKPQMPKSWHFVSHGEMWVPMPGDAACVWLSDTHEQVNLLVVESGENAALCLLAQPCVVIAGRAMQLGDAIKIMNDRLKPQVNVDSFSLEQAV

Experiment [1] concerns the target FtsZ^316-370 (bacterial two-hybrid fusion) (Escherichia coli) (UniProt P0A9A6). Description: two-hybrid; bacterial two-hybrid in strain LYA1 (BTH101, ftsA^R286W); LB plates with antibiotics, 40 µg/mL X-gal and IPTG, 30°C, about 18 hours.
Experiment [2] addresses FtsZ^316-383 (bacterial two-hybrid fusion) (Escherichia coli) (UniProt P0A9A6). Described as above.
The target of experiment [3] is SUMO-FtsZ^316-370 (Escherichia coli) (UniProt P0A9A6). Kind of experiment: BLI; SUMO fusions of FtsZ or its parts, or SUMO alone (0.5 µM), held on Ni-NTA biosensors; untagged ZapC in solution; Octet-Red96, 30°C, 1× Pol buffer; apparent Kd from the signal at the end of association, one-site fit; both purified.

As for “ZapC (bacterial two-hybrid fusion) (from UniProt P75862 1-180)”, the binding entry in experiment [1] is recorded as “no binding”; in experiment [2], “binds”.
As for “ZapC (untagged) (from UniProt P75862 1-180)”, in experiment [3], the binding entry is given as “no binding”.

The values are drawn from PMC12607630.
